Source: ChEMBL document CHEMBL4888484, “Replenishing the malaria drug discovery pipeline: Screening and hit evaluation of the MMV Hit Generation Library 1 (HGL1) against asexual blood stage Plasmodium falciparum ,using a nano luciferase reporter read-out” (2022)
In all, about 150,000 compounds went through this assay and about 540 (0.36%) showed an effect of 50% or more. The list shows a part of the results.

What follows are compounds tested on Plasmodium falciparum (assay: Primary screen in NF54 nanoGlo assay, in single point, at 2uM, 72h; a lower Z score goes with more inhibition). Details: timepoint 72 hour.
Format: functional, Erythrocyte

SMILES	% Inhibition	Z score
Cc1cc(C(=O)N[C@H]2CCCN(C)C2)no1	-7%	1.27
CCN(C[C@H](C)C#N)S(=O)(=O)N1CCN(c2cc(C)[nH]n2)CC1	-10%	1.29
C[C@H]1CNC(=O)CCN1Cc1ccc2cccc(Cl)c2n1	-14%	1.54
CCn1cc(N)c(OCCC(F)(F)F)n1	-12%	1.91
COc1ccc(C)cc1NC(=O)Cn1nc2c(N3CCC[C@H](C)C3)nccn2c1=O	-6%	0.71
O=C(NCCCN1CCCC1=O)c1nnc(Cc2cccc(Cl)c2)o1	-10%	1.5
CCCn1nccc1-c1csc(S(=O)(=O)NC2CCCC2)c1	-13%	1.64
CCc1cccc(NC(=O)N2CC[C@H](N3CCOCC3)[C@H](CCC(=O)O)C2)c1	1%	-0.17
NC(=NCCc1ccc(F)c(F)c1)NC1CC1	-24%	2.45
CCS(=O)(=O)N1CCC[C@H](C(=O)NC(C(C)C)C(C)C)C1	4%	-0.43
Cc1cc(C)c(C(=O)NCC2CCCC2NS(C)(=O)=O)c(C)c1 (stereo not given)	-9%	1.01
CCOC(=O)c1noc2ncnc(N(CCC(=O)OC)c3ccccc3)c12	-7%	1.23
CCCN(Cc1csc(COc2cccc(Cl)c2)n1)C(=O)c1ccc(C)cc1	1%	-0.17
c1nc(NCCCC[C@H]2CCCO2)c2cc[nH]c2n1	0%	0.05
O=S(=O)(Cc1ccc(OC(F)(F)F)cc1)Nc1cccnc1-n1cccn1	2%	-0.39
C=C=CCNS(=O)(=O)C[C@@H]1CC[C@H](NC(=O)OC(C)(C)C)C1	-8%	0.9
COc1cc(C(=O)N2CC(Nc3ccc(F)cc3)C2)sn1	0%	0.02
COc1ccc(-c2[nH]ncc2C(=O)NCC2CCCCC2)cc1OC	35%	-0.66
COCCC1(CNC(=O)N2CCCCCC2)CCC1	0%	0.03
Nc1cc(N2CCn3nc(CNc4cnccn4)cc3C2)ncn1	-14%	1.49
Cc1cc(-c2cccnc2)nn1CCNS(=O)(=O)Cc1cc(F)ccc1F	8%	-1.03
CC(C)n1ncc2c(=O)n(CN3CCCCC3=O)cnc21	5%	-0.68
C[C@@H](Cc1cccc(F)c1)NS(=O)(=O)CC1CCOCC1	-6%	0.83
Cc1cc(NC(=O)C[C@H](O)C(C)C)ccc1Oc1ccncc1	-16%	2.04
O=C(CN1C(=O)c2ccccc2C1=O)NC1CCC(O)CC1 (stereo not given)	2%	-0.35
Cc1ccc(C)n1CC(=O)NCCCn1ccnc1	-7%	0.95
CC(C)n1cc([C@@H]2CC(=O)Nc3cccc4c3c2cn4Cc2ccccc2)cn1	-22%	2.86
O=C1NC2(CCCCC2)C(=O)N1CN1CCC[C@H](c2nc3ccccc3s2)C1	-6%	0.62

SMILES	% Inhibition	Z score
COc1cc(C)cnc1C(=O)N1CC[C@H](O)C1(C)C	-3%	0.45
N[C@@H](CC(=O)N1CCC2(CCCCC2)C1)c1ccccc1	-11%	2
CC(=O)NCc1csc(C2CCN(S(=O)(=O)c3cc(C)c(C)cc3C)CC2)n1	-14%	1.69
COc1cc(CNC[C@H]2CCCO2)cc(Br)c1OCc1cccnc1	-6%	0.91
Cc1ccc(Cc2nc(N3CCCN(C(=O)c4ccc(C)cc4)CC3)c3cnn(-c4ccccc4)c3n2)cc1	36%	-4.82
CC(C)Cc1cc(CN2CCN(Cc3ncc[nH]3)[C@H]3CS(=O)(=O)C[C@H]32)n[nH]1	-10%	1.14
CC1(NCc2cscn2)CCCCCC1	-15%	1.8
C=C[C@H]1OCC[C@@H]1NC(=O)c1cccc(OC)c1	11%	-2.02
CC1(C(=O)N[C@H]2CCN(C(N)=O)C2)CCCCCC1	-5%	0.75
C[C@H]1c2ccccc2CCN1C(=O)Nc1cn(C)nc1C1CC1	-3%	0.32
COCc1cc(NCCN2CCCCC2)n2nccc2n1	0%	0.05
C[C@H]1CN(Cc2cc(C#N)cs2)C(C)(C)CO1	-4%	0.38
Cc1ccc(S(=O)(=O)Nc2ccc(S(=O)(=O)Nc3nccs3)cc2)cc1C	-9%	1.5
C[C@H]1Cc2ccccc2N1C(=O)c1cn(C)c(=O)n(C)c1=O	-4%	0.43
O=C(COc1ccc(-n2cccn2)nn1)NCc1cccnc1	-11%	2.1
CCc1ccc(C(=O)NCCNS(=O)(=O)NC(C)C)cc1	-9%	0.82
Cc1cccc(NC(=O)Cn2c(C)cc(=O)n3nc(-c4ccccc4Cl)nc23)c1C	-14%	1.76
CN1CCC(N2CCC[C@H]2c2nc(-c3ccnc(N4CCOCC4)c3)no2)CC1	-6%	1.16
COc1ccccc1NC(=O)c1c(NCc2sccc2C)sc2c1CCCCC2	-4%	0.71
CCOC(=O)c1nnc2ccccc2c1N1CCN(c2ccccc2F)CC1	-13%	1.79
Cc1c(C(=O)NCc2cc3n(n2)CCNC3)n(C)c2c(C)cccc12	-6%	1.14
CC(C)CC(=O)N(Cc1cccc(OS(=O)(=O)C(C)C)c1)CC(C)C	0%	0.07
Cc1cccc(-c2noc([C@@H]3CCCN3C(=O)NC(C)C)n2)c1	-3%	0.38
Cc1ccc(-c2nc(CN3CCCS3(=O)=O)cs2)o1	-6%	1.02
C=CCC1(OCc2ccccc2)CCN(C(=O)Cn2nnnc2N)CC1	-6%	1.02
O=C(Cn1cnnn1)Nc1c2c(nn1-c1ccc(Cl)cc1)CCC2	6%	-0.93
O=C(c1cccc(F)c1)N1CC[C@H]2[C@H](CCCN2Cc2ccc3nsnc3c2)C1	11%	-1.44
